Results on 14 molecules are retold here after the supplement of paper PMC4604168 (melanoma cell lines).

Some of the results follow. Many values rest on one well or one pass, so single values are uncertain.
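Also: cell number obtained by counting DAPI-stained nuclei in high-throughput microscope images with image analysis software, screen run in 1,536-well plates.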

One assay has as its system SkMel2. The experiment in a line: cell count relative to DMSO control; melanoma cells; higher = more viable cells. The conditions noted are these: library dose: low library concentration; 72 h.
In turn, `O=C(Nc1cc(C(F)(F)F)cc(C(F)(F)F)c1)c1cc(Cl)ccc1O` + NC1(c2ccc(-c3nc4ccn5c(=O)[nH]nc5c4cc3-c3ccccc3)cc2)CCC1 [MK2206] (first compound 0.016 µM, partner dose 0.4 µM) registered a cell count of 89.4%. The molecule `O=C(Nc1cc(C(F)(F)F)cc(C(F)(F)F)c1)c1cc(Cl)ccc1O` + O=c1[nH]nc(Sc2ncc([N+](=O)[O-])s2)n1-c1ccc2c(c1)OCCO2 [BI78D3] (first compound 0.016 µM, partner dose 0.2 µM) came in with a cell count of 74.9%. For `O=C(O)[C@@H]1[O][Sb](=[O])([O][Sb]2(=[O])[O][C@H]([C@H](O)CO)[C@H](O)[C@H](C(=O)O)[O]2)[O][C@H]([C@H](O)CO)[C@@H]1O` (some centres undefined) [stibogluconate] + Nc1cccc2c1CN(C1CCC(=O)NC1=O)C2=O [lenalidomide] (first compound 2 µM, partner dose 1 µM), the cell count was found to be 88.4%. Turning to `Cn1nnc2c(C(N)=O)ncn2c1=O` [temozolomide] + CN(NC(=O)CC(=O)NN(C)C(=S)c1ccccc1)C(=S)c1ccccc1 [STA4783] (first compound 2 µM, partner dose 0.006 µM), the cell count came to 95.6%.

For another assay, the system named is SkMel30. The description is as above. The conditions noted are these: library dose: low library concentration; 72 h.
`O=C(O)[C@@H]1[O][Sb](=[O])([O][Sb]2(=[O])[O][C@H]([C@H](O)CO)[C@H](O)[C@H](C(=O)O)[O]2)[O][C@H]([C@H](O)CO)[C@@H]1O` (some centres undefined) [stibogluconate] + CN(C)S(=O)(=O)c1ccc2c(c1)/C(=C/c1cc3c([nH]1)CCCC3)C(=O)N2 [SU6656] (first compound 2 µM, partner dose 0.4 µM) came in with a cell count of 111%. The molecule `O=C(O)c1ccc2c(c1)nc(Nc1cccc(Cl)c1)c1ccncc12` + C[C@]1(c2nc3c(C(N)=O)cccc3[nH]2)CCCN1 [Veliparib] (first compound 0.4 µM, partner dose 1.4 µM) had a cell count of 89.3%. The same measure, in the same setting: with `O=C(Nc1cc(C(F)(F)F)cc(C(F)(F)F)c1)c1cc(Cl)ccc1O` + NC(=O)c1ccc(N(C(N)=O)c2c(F)cccc2F)nc1-c1ccc(F)cc1F [VX702] (first compound 0.016 µM, partner dose 0.4 µM) the figure was 124%; with `O=C(Nc1cc(C(F)(F)F)cc(C(F)(F)F)c1)c1cc(Cl)ccc1O` + Cn1cnc2c(F)c(Nc3ccc(Br)cc3Cl)c(C(=O)NOCCO)cc21 [selumetinib] (first compound 0.016 µM, partner dose 0.015 µM), 82.9%; with `O=C(O)c1ccc2c(c1)nc(Nc1cccc(Cl)c1)c1ccncc12` + O=C1NC(=O)/C(=C/c2ccc(-c3ccc(F)cc3O)o2)S1 [AS252424] (first compound 0.4 µM, partner dose 1 µM), 87.7%. With `O=C(Nc1cc(C(F)(F)F)cc(C(F)(F)F)c1)c1cc(Cl)ccc1O` + O=C(O)[C@@H]1[O][Sb](=[O])([O][Sb]2(=[O])[O][C@H]([C@H](O)CO)[C@H](O)[C@H](C(=O)O)[O]2)[O][C@H]([C@H](O)CO)[C@@H]1O [stibogluconate] (first compound 0.016 µM, partner dose 2 µM), the cell count stood at 88.8%. `O=C(O)c1ccc2c(c1)nc(Nc1cccc(Cl)c1)c1ccncc12` + OCc1c[nH]c2ccccc12 [Indole-3-carbinol] (first compound 0.4 µM, partner dose 0.8 µM) showed a cell count of 91.4%. Regarding `O=C(Nc1cc(C(F)(F)F)cc(C(F)(F)F)c1)c1cc(Cl)ccc1O` + COc1cc2ncnc(Nc3ccc(Oc4ccccc4)cc3)c2cc1OC [SrcI1] (first compound 0.016 µM, partner dose 2 µM), the cell count was found to be 100%.

`O=C(O)[C@@H]1[O][Sb](=[O])([O][Sb]2(=[O])[O][C@H]([C@H](O)CO)[C@H](O)[C@H](C(=O)O)[O]2)[O][C@H]([C@H](O)CO)[C@@H]1O` (some centres undefined) [stibogluconate] + COc1cc(Nc2ncc(F)c(Nc3ccc4c(n3)NC(=O)C(C)(C)O4)n2)cc(OC)c1OC [Tamatinib] (first compound 2 µM, partner dose 0.4 µM) gave a cell count of 106%. The molecule `O=C(Nc1cc(C(F)(F)F)cc(C(F)(F)F)c1)c1cc(Cl)ccc1O` + CC1(C)CCC(c2ccc(Cl)cc2)=C(CN2CCN(c3ccc(C(=O)NS(=O)(=O)c4ccc(N[C@H](CCN5CCOCC5)CSc5ccccc5)c(S(=O)(=O)C(F)(F)F)c4)cc3)CC2)C1 [ABT263] (first compound 0.016 µM, partner dose 0.4 µM) gave a cell count of 86.1%.
